# Source: the supplement of paper PMC8728848
# The list shows a part of the results.
# Key:
# Assay in all cases: glycan array binding signal (z-score within array); higher = stronger binding
# Conditions in all cases: glycan notation: IUPAC condensed, linker removed
# [1] = molecular target: Neu5Ac(a2-3)Gal(b1-4)[Fuc(a1-3)]GlcNAc
# Outline: (§1)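 Arrays were curated from the Consortium for Functional Glycomics database, 3228 in total, and kept only where the protein sequence was available. Binding is expressed as a within-array Z-score. This score was averaged across arrays of the same protein sequence at different concentrations or buffers and across linkers, and negative values can be read as non-binding.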
# [2] = molecular target: Neu5Ac(a2-3)Gal(b1-4)[Fuc(a1-3)]GlcNAc(b1-2)Man
# Outline: as §1
# [3] = molecular target: Neu5Ac(a2-3)Gal(b1-4)[Fuc(a1-3)]GlcNAc(b1-3)Gal
# Outline: as §1
# [4] = molecular target: Neu5Ac(a2-3)Gal(b1-4)[Fuc(a1-3)]GlcNAc(b1-3)Gal(b1-4)GlcNAc
# Outline: as §1
# [5] = molecular target: Neu5Ac(a2-3)Gal(b1-4)[Fuc(a1-3)]GlcNAc(b1-3)Gal(b1-4)[Fuc(a1-3)]GlcNAc(b1-3)Gal(b1-4)[Fuc(a1-3)]GlcNAc
# Outline: as §1
# [6] = molecular target: Neu5Ac(a2-3)Gal(b1-4)[Fuc(a1-3)]GlcNAc(b1-3)GalNAc
# Outline: as §1
# [7] = molecular target: Neu5Ac(a2-3)Gal(b1-4)[Fuc(a1-3)]GlcNAc(b1-6)[Gal(b1-3)]GalNAc
# Outline: as §1
# [8] = molecular target: Neu5Ac(a2-3)Gal(b1-4)[Fuc(a1-3)]GlcNAc(b1-6)[Neu5Ac(a2-3)Gal(b1-3)]GalNAc
# Outline: as §1
# [9] = molecular target: Neu5Ac(a2-3)Gal(b1-4)[Fuc(a1-3)]GlcNAc6S
# Outline: as §1
# [10] = molecular target: Neu5Ac(a2-3)Gal6S(b1-4)GlcNAc
# Outline: as §1
# [11] = molecular target: Neu5Ac(a2-3)Gal6S(b1-4)[Fuc(a1-3)]GlcNAc
# Outline: as §1
# Neu5Ac(a2-3)GalNAc = molecular target: Neu5Ac(a2-3)GalNAc
# Outline: as §1
# [12] = molecular target: Neu5Ac(a2-3)GalNAc(b1-4)GlcNAc
# Outline: as §1
# [13] = molecular target: Neu5Ac(a2-3)[GalNAc(b1-4)]Gal(b1-4)Glc
# Outline: as §1
# [14] = molecular target: Neu5Ac(a2-3)[GalNAc(b1-4)]Gal(b1-4)GlcNAc
# Outline: as §1
# [15] = molecular target: Neu5Ac(a2-3)[GalNAc(b1-4)]Gal(b1-4)GlcNAc(b1-3)GalNAc
# Outline: as §1
# [16] = molecular target: Neu5Ac(a2-3)[Neu5Ac(a2-6)]GalNAc
# Outline: as §1
# Neu5Ac(a2-6)Gal = molecular target: Neu5Ac(a2-6)Gal
# Outline: as §1
# [17] = molecular target: Neu5Ac(a2-6)Gal(b1-3)GlcNAc(b1-3)[Gal(b1-4)GlcNAc(b1-6)]Gal(b1-4)Glc
# Outline: as §1
# Neu5Ac(a2-6)Gal(b1-4)Glc = molecular target: Neu5Ac(a2-6)Gal(b1-4)Glc
# Outline: as §1
# [18] = molecular target: Neu5Ac(a2-6)Gal(b1-4)GlcNAc
# Outline: as §1
# [19] = molecular target: Neu5Ac(a2-6)Gal(b1-4)GlcNAc(b1-2)Man
# Outline: as §1
# [20] = molecular target: Neu5Ac(a2-6)Gal(b1-4)GlcNAc(b1-2)Man(a1-3)Man(b1-4)GlcNAc(b1-4)GlcNAc
# Outline: as §1
# [21] = molecular target: Neu5Ac(a2-6)Gal(b1-4)GlcNAc(b1-2)Man(a1-3)[Gal(b1-4)GlcNAc(b1-2)Man(a1-6)]Man(b1-4)GlcNAc(b1-4)GlcNAc
# Outline: as §1
# [22] = molecular target: Neu5Ac(a2-6)Gal(b1-4)GlcNAc(b1-2)Man(a1-3)[GlcNAc(b1-2)Man(a1-6)]Man(b1-4)GlcNAc(b1-4)GlcNAc
# Outline: as §1
# [23] = molecular target: Neu5Ac(a2-6)Gal(b1-4)GlcNAc(b1-2)Man(a1-3)[GlcNAc(b1-2)Man(b1-4)GlcNAc(b1-2)Man(a1-6)]Man(b1-4)GlcNAc(b1-4)GlcNAc
# Outline: as §1
# [24] = molecular target: Neu5Ac(a2-6)Gal(b1-4)GlcNAc(b1-2)Man(a1-3)[GlcNAc(b1-4)][Neu5Ac(a2-6)Gal(b1-4)GlcNAc(b1-2)Man(a1-6)]Man(b1-4)GlcNAc(b1-4)GlcNAc
# Outline: as §1
# [25] = molecular target: Neu5Ac(a2-6)Gal(b1-4)GlcNAc(b1-2)Man(a1-3)[Man(a1-6)]Man(b1-4)GlcNAc(b1-4)GlcNAc
# Outline: as §1
# [26] = molecular target: Neu5Ac(a2-6)Gal(b1-4)GlcNAc(b1-2)Man(a1-3)[Neu5Ac(a2-3)Gal(b1-4)GlcNAc(b1-2)Man(a1-6)]Man(b1-4)GlcNAc(b1-4)GlcNAc
# Outline: as §1
# [27] = molecular target: Neu5Ac(a2-6)Gal(b1-4)GlcNAc(b1-2)Man(a1-3)[Neu5Ac(a2-6)Gal(b1-4)GlcNAc(b1-2)Man(a1-6)]Man(b1-4)GlcNAc(b1-4)GlcNAc
# Outline: as §1
# [28] = molecular target: Neu5Ac(a2-6)Gal(b1-4)GlcNAc(b1-2)Man(a1-3)[Neu5Ac(a2-6)Gal(b1-4)GlcNAc(b1-2)Man(a1-6)]Man(b1-4)GlcNAc(b1-4)[Fuc(a1-6)]GlcNAc
# Outline: as §1
# [29] = molecular target: Neu5Ac(a2-6)Gal(b1-4)GlcNAc(b1-2)Man(a1-6)Man(b1-4)GlcNAc(b1-4)GlcNAc
# Outline: as §1
# [30] = molecular target: Neu5Ac(a2-6)Gal(b1-4)GlcNAc(b1-2)Man(a1-6)[Gal(b1-4)GlcNAc(b1-2)Man(a1-3)]Man(b1-4)GlcNAc(b1-4)GlcNAc
# Outline: as §1
# [31] = molecular target: Neu5Ac(a2-6)Gal(b1-4)GlcNAc(b1-2)Man(a1-6)[GlcNAc(b1-2)Man(a1-3)]Man(b1-4)GlcNAc(b1-4)GlcNAc
# Outline: as §1
# [32] = molecular target: Neu5Ac(a2-6)Gal(b1-4)GlcNAc(b1-2)Man(a1-6)[Man(a1-3)]Man(b1-4)GlcNAc(b1-4)GlcNAc
# Outline: as §1
# [33] = molecular target: Neu5Ac(a2-6)Gal(b1-4)GlcNAc(b1-2)[Neu5Ac(a2-6)Gal(b1-4)GlcNAc(b1-4)]Man(a1-3)[GlcNAc(b1-4)][Neu5Ac(a2-6)Gal(b1-4)GlcNAc(b1-2)[Neu5Ac(a2-6)Gal(b1-4)GlcNAc(b1-6)]Man(a1-6)]Man(b1-4)GlcNAc(b1-4)GlcNAc
# Outline: as §1
# [34] = molecular target: Neu5Ac(a2-6)Gal(b1-4)GlcNAc(b1-2)[Neu5Ac(a2-6)Gal(b1-4)GlcNAc(b1-4)]Man(a1-3)[GlcNAc(b1-4)][Neu5Ac(a2-6)Gal(b1-4)GlcNAc(b1-4)Man(a1-6)]Man(b1-4)GlcNAc(b1-4)GlcNAc
# Outline: as §1
# [35] = molecular target: Neu5Ac(a2-6)Gal(b1-4)GlcNAc(b1-2)[Neu5Ac(a2-6)Gal(b1-4)GlcNAc(b1-6)]Man(a1-6)[Neu5Ac(a2-6)Gal(b1-4)GlcNAc(b1-2)Man(a1-3)][GlcNAc(b1-4)]Man(b1-4)GlcNAc(b1-4)GlcNAc
# Outline: as §1
# [36] = molecular target: Neu5Ac(a2-6)Gal(b1-4)GlcNAc(b1-3)Gal(b1-3)GlcNAc
# Outline: as §1
# [37] = molecular target: Neu5Ac(a2-6)Gal(b1-4)GlcNAc(b1-3)Gal(b1-4)GlcNAc
# Outline: as §1
# [38] = molecular target: Neu5Ac(a2-6)Gal(b1-4)GlcNAc(b1-3)Gal(b1-4)GlcNAc(b1-2)Man(a1-3)[Neu5Ac(a2-6)Gal(b1-4)GlcNAc(b1-3)Gal(b1-4)GlcNAc(b1-2)Man(a1-6)]GalNAc
# Outline: as §1
# [39] = molecular target: Neu5Ac(a2-6)Gal(b1-4)GlcNAc(b1-3)Gal(b1-4)GlcNAc(b1-3)Gal(b1-4)GlcNAc
# Outline: as §1
# [40] = molecular target: Neu5Ac(a2-6)Gal(b1-4)GlcNAc(b1-3)Gal(b1-4)GlcNAc(b1-3)Gal(b1-4)GlcNAc(b1-2)Man(a1-3)[Neu5Ac(a2-6)Gal(b1-4)GlcNAc(b1-3)Gal(b1-4)GlcNAc(b1-3)Gal(b1-4)GlcNAc(b1-2)Man(a1-6)]GalNAc
# Outline: as §1
# [41] = molecular target: Neu5Ac(a2-6)Gal(b1-4)GlcNAc(b1-3)Gal(b1-4)GlcNAc(b1-3)GalNAc
# Outline: as §1
binder,measurement,setting,value
"LSECtin (Homo sapiens), Q6UXB4 (protein) MDTTRYSKWGGSSEEVPGGPWGRWVHWSRRPLFLALAVLVTTVLWAVILSILLSKASTERAALLDGHDLLRTNASKQTAALGALKEEVGDCHSCCSGTQAQLQTTRAELGEAQAKLMEQESALRELRERVTQGLAEAGRGREDVRTELFRALEAVRLQNNSCEPCPTSWLSFEGSCYFFSVPKTTWAAAQDHCADASAHLVIVGGLDEQGFLTRNTRGRGYWLGLRAVRHLGKVQGYQWVDGVSLSFSHWNQGEPNDAWGRENCVMMLHTGLWNDAPCDSEKDGWICEKRHNC",glycan array binding signal (z-score),[1],-0.193
same,glycan array binding signal (z-score),[2],-0.133
same,glycan array binding signal (z-score),[3],0.027
same,glycan array binding signal (z-score),[4],-0.058
same,glycan array binding signal (z-score),[5],-0.177
same,glycan array binding signal (z-score),[6],4.08
same,glycan array binding signal (z-score),[7],-0.06
same,glycan array binding signal (z-score),[8],0.235
same,glycan array binding signal (z-score),[9],-0.201
same,glycan array binding signal (z-score),[10],-0.124
same,glycan array binding signal (z-score),[11],-0.196
same,glycan array binding signal (z-score),Neu5Ac(a2-3)GalNAc,-0.21
same,glycan array binding signal (z-score),[12],-0.22
same,glycan array binding signal (z-score),[13],-0.167
same,glycan array binding signal (z-score),[14],-0.026
same,glycan array binding signal (z-score),[15],-0.132
same,glycan array binding signal (z-score),[16],-0.179
same,glycan array binding signal (z-score),Neu5Ac(a2-6)Gal,0.061
same,glycan array binding signal (z-score),[17],-0.133
same,glycan array binding signal (z-score),Neu5Ac(a2-6)Gal(b1-4)Glc,-0.157
same,glycan array binding signal (z-score),[18],-0.132
same,glycan array binding signal (z-score),[19],-0.134
same,glycan array binding signal (z-score),[20],-0.188
same,glycan array binding signal (z-score),[21],-0.19
same,glycan array binding signal (z-score),[22],0.942
same,glycan array binding signal (z-score),[23],-0.402
same,glycan array binding signal (z-score),[24],-0.147
same,glycan array binding signal (z-score),[25],-0.181
same,glycan array binding signal (z-score),[26],-0.138
same,glycan array binding signal (z-score),[27],-0.091
same,glycan array binding signal (z-score),[28],-0.132
same,glycan array binding signal (z-score),[29],-0.13
same,glycan array binding signal (z-score),[30],0.054
same,glycan array binding signal (z-score),[31],5.06
same,glycan array binding signal (z-score),[32],-0.185
same,glycan array binding signal (z-score),[33],-0.133
same,glycan array binding signal (z-score),[34],-0.129
same,glycan array binding signal (z-score),[35],-0.134
same,glycan array binding signal (z-score),[36],-0.164
same,glycan array binding signal (z-score),[37],-0.139
same,glycan array binding signal (z-score),[38],-0.13
same,glycan array binding signal (z-score),[39],-0.25
same,glycan array binding signal (z-score),[40],-0.135
same,glycan array binding signal (z-score),[41],-0.134
